Results reported in paper PMC6262871.
These are yes or no findings as the source states them, for the method shown. Binding seen in cells or lysates may run through a third protein. Some binding calls cover weakened binding; strength is not graded here. For some of these results: Where a sequence is shown, tags or fusion partners need not be part of it.

Sequences of proteins named here, by UniProt entry; tags and fusion partners are left off. Residues count along the entry.
UniProt P01731, residues 28-247: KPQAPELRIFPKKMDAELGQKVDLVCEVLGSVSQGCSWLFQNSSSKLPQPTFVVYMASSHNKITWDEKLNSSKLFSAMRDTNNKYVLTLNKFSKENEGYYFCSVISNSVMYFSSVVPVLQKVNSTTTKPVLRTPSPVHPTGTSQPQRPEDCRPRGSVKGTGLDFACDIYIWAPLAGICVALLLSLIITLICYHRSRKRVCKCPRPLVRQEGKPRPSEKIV
UniProt P18537, residues 19-581: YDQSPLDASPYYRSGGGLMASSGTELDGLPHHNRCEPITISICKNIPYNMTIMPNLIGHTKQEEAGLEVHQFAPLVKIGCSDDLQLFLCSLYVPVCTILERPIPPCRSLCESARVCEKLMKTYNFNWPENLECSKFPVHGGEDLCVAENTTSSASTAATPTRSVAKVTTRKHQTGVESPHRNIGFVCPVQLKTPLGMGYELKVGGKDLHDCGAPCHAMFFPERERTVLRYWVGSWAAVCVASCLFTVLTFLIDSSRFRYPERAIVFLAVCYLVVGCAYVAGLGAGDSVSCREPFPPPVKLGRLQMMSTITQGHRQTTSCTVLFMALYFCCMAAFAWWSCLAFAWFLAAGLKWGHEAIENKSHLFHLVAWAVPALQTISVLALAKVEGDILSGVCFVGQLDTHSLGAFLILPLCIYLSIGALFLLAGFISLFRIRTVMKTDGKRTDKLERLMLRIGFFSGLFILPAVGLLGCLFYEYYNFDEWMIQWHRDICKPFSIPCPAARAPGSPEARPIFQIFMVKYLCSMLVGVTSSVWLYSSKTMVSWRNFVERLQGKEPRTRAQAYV

B1: Myc-tagged Wg (ligand, UniProt P09615 18-468)
chain: GSSLSQVEGKQKSGRGRGSMWWGIAKVGEPNNITPIMYMDPAIHSTLRRKQRRLVRDNPGVLGALVKGANLAISECQHQFRNRRWNCSTRNFSRGKNLFGKIVDRGCRETSFIYAITSAAVTHSIARACSEGTIESCTCDYSHQSRSPQANHQAGSVAGVRDWEWGGCSDNIGFGFKFSREFVDTGERGRNLREKMNLHNNEAGRAHVQAEMRQECKCHGMSGSCTVKTCWMRLANFRVIGDNLKARFDGATRVQVTNSLRATNALAPVSPNAAGSNSVGSNGLIIPQSGLVYGEEEERMLNDHMPDILLENSHPISKIHHPNMPSPNSLPQAGQRGGRNGRRQGRKHNRYHFQLNPHNPEHKPPGSKDLVYLEPSPSFCEKNLRQGILGTHGRQCNETSLGVDGCGLMCCGRGYRRDEVVVVERCACTFHWCCEVKCKLCRTKKVIYTCL
B2: Myc-tagged Wnt4 (ligand, UniProt P40589 22-539)
chain: QVRNEDQLLMVGQNGDLDSSNPAIHHQQHQQHQQHQQHQQHQSNHNLNNGNMNSTILNTLMGNNAGQVVNSSPGGGGSMINQLGSSTSSVPSVIGGGVGSVGNPWHSAVGLGVPGNGMGLPSSHGLGGNMGSHPHGHALAGLAKLGIIVPGGQGLPGNLGYGGTMLNGGGVGGAAGMGLGIGSNTNNMDMQQGLYNEHFISEHTVMAVFTSQGQVGGPCRYMPATRRQNHQCRKETGLPGTLSEARRLATTHCEEQFRYDRWNCSIETRGKRNIFKKLYKETAFVHALTAAAMTHSIARACAEGRMTKCSCGPKKHNREAQDFQWGGCNDNLKHGKRVTRSFLDLRGGDGDEVSEILRHDSEVGIEAVSSQMMDKCKCHGVSGSCSMKTCWKKMADFNATATLLRQKYNEAIRKAPNQRSMRQVSSSRMKKPKQRRKKPQQSQYTTLYYLETSPSYCAVTKDRQCLHPDNCGTLCCGRGYTTQVVKQVEKCRCRFNNGRCCQLICDYCQRLENKYFCK
B3: Myc-tagged Wnt5 (ligand, UniProt P28466 30-1004)
chain: TVGLQGVPTWIYLGLKSPFIEFGNQVEQLANSSIPLNMTKDEQANMHQEGLRKLGTFIKPVDLRDSETGFVKADLTKRLVFDRPNNITSRPIHPIQEEMDQKQIILLDEDTDENGLPASLTDEDRKFIVPMALKNISPDPRWAATTPSPSALQPNAKAISTIVPSPLAQVEGDPTSNIDDLKKHILFLHNMTKTNSNFESKFVKFPSLQKDKAKTSGAGGSPPNPKRPQRPIHQYSAPIAPPTPKVPAPDGGGVGGAAYNPGEQPIGGYYQNEELANNQSLLKPTDTDSHPAAGGSSHGQKNPSEPQVILLNETLSTETSIEADRSPSINQPKAGSPARTTKRPPCLRNPESPKCIRQRRREEQQRQRERDEWFRGQSQYMQPRFEPIIQTINNTKRFAVSIEIPDSFKVSSEGSDGELLSRVERSQPSISSSSSSSSSSSRKIMPDYIKVSMENNTSVTDYFKHDVVMTSADVASDREFLIKNMEEHGGAGSANSHHNDTTPTADAYSETIDLNPNNCYSAIGLSNSQKKQCVKHTSVMPAISRGARAAIQECQFQFKNRRWNCSTTNDETVFGPMTSLAAPEMAFIHALAAATVTSFIARACRDGQLASCSCSRGSRPKQLHDDWKWGGCGDNLEFAYKFATDFIDSREKETNRETRGVKRKREEINKNRMHSDDTNAFNIGIKRNKNVDAKNDTSLVVRNVRKSTEAENSHILNENFDQHLLELEQRITKEILTSKIDEEEMIKLQEKIKQEIVNTKFFKGEQQPRKKKRKNQRAAADAPAYPRNGIKESYKDGGILPRSTATVKARSLMNLHNNEAGRRAVIKKARITCKCHGVSGSCSLITCWQQLSSIREIGDYLREKYEGATKVKINKRGRLQIKDLQFKVPTAHDLIYLDESPDWCRNSYALHWPGTHGRVCHKNSSGLESCAILCCGRGYNTKNIIVNERCNCKFHWCCQVKCEVCTKVLEEHTCK
B4: Myc-tagged Wnt2 (ligand, UniProt P28465 24-352)
chain: FTSVMLCGRIPGLTPGQRNMCREMPDALIALGEGHQLGAQECQHQFRGHRWNCSEVWQRNVFAHVIPTASREAAYTYAIASAGAAYAVTAACARGNISTCGCDVRHKATPTGGGTPDEPWKWGGCSADVDFGMRYARRFMDARELERDSRTLMNLHNNRAGRTLVKKMLRTDCKCHGVSGSCVMKTCWKSLPPFRLVGDRLMLKYQKAKTVQAVKGKRGLRLVLSRKKHAGTARAQKPVLDWPKRMELIYLEASPNYCERSLQTGSQGTSGRTCQRTGHGPQSCDLLCCGRGHNTQHIRRTTQCRCQFRWCCEVKCDECDESYEEFTCK
B5: Myc-tagged Fz2 (receptor, UniProt Q9VVX3 23-694)
chain: DGPLHSADHGMGGMGMGGHGLDASPAPGYGVPVIPKDPNLRCEEITIPMCRGIGYNMTSFPNEMNHETQDEAGLEVHQFWPLVEIKCSPDLKFFLCSMYTPICLEDYHKPLPVCRSVCERARSGCAPIMQQYSFEWPERMACEHLPLHGDPDNLCMEQPSYTEAGSGGSSGGSGGSGSGSGSGGKRKQGGSGSGGSGAGGSSGSTSTKPCRGRNSKNCQNPQGEKASGKECSCSCRSPLIFLGKEQLLQQQSQMPMMHHPHHWYMNLTVQRIAGVPNCGIPCKGPFFSNDEKDFAGLWIALWSGLCFCSTLMTLTTFIIDTERFKYPERPIVFLSACYFMVAVGYLSRNFLQNEEIACDGLLLRESSTGPHSCTLVFLLTYFFGMASSIWWVILSFTWFLAAGLKWGNEAITKHSQYFHLAAWLIPTVQSVAVLLLSAVDGDPILGICYVGNLNPDHLKTFVLAPLFVYLVIGTTFLMAGFVSLFRIRSVIKQQGGVGAGVKADKLEKLMIRIGIFSVLYTVPATIVIGCYLYEAAYFEDWIKALACPCAQVKGPGKKPLYSVLMLKYFMALAVGITSGVWIWSGKTLESWRRFWRRLLGAPDRTGANQALIKQRPPIPHPYAGSGMGMPVGSAAGSLLATPYTQAGGASVASTSHHHLHHHVLKQPAASHV
B6: Myc-tagged Otk (receptor, UniProt Q6AWJ9 23-1033)
chain: SSSRFQRVPQSQSVVENESVKFECESTDSYSELHYDWLHNGHRIAYDKRVHQIGSNLHIEAVRRTEDVGNYVCIATNLASGAREASPPAKLSVIYLESASVQLLGSNRNELLLKCHVEGASGDLEPLEIEWYRNSEKLSTWKNVQLDQHRLIIRQPGSEDDGLYRCTASNAAGRVMSKQGYVYQSSVKCLPRLPRRKNEKMMESWDKQTFLCRGKRGGAAGLEALPAAPEDLRIVQGPIGQSIIKEGEPTALTCLYELPDELKNQRIQLRWRKDGKLLRQVELGGSAPIPGHSFDSGKDALLREDARLVLHKQNGTLSFASIIASDAGQYQCQLQLEAHAPINSSPGILEVIEQLKFVPQPTSKNLELDAVVAKVHCKAQGTPTPQVQWVRDGENTTLPDHVEVDANGTLIFRNVNSEHRGNYTCLATNSQGQINATVAINVVVTPKFSVPPVGPIETSEQGTVVMHCQAIGDPKPTIQWDKDLKYLSENNTDRERFRFLENGTLEIRNVQVEDEGSYGCTIGNSAGLKREDVQLVVKTTGDGFAPEESGGDGFLVTRAVLITMTVALAYIVLVVGLMLWCRYRRQARKARLNDLSTKEAGGDQPDVAGNGKGSEQEPCLSKQHNGHSKSRSKSSGDAQKSDDTACSQQSRASKKSAHIYEQLALPRSGLSELIQIGRGEFGDVFVGKLKATLVTSPSDKDADTEKQHSNSENGSGGSGSGSTTLSTLNEKRRSKTSMDDIEEIKEEEQDQHNQSGLEQLVLVKALNKVKDEQACQEFRRQLDLLRAISHKGVVRLFGLCREKDPHYMVLEYTDWGDLKQFLLATAGKVNTATAGSSSPPPLTTSQVLAVAYQIARGMDAIYRARFTHRDLATRNCVISSEFIVKVSYPALCKDKYSREYHKHRNTLLPIRWLAPECIQEDEYTTKSDIFAYGVVVWELFNQATKLPHEELTNEQVVQRSQAGSLEWSVAEATPDSLREILLSCWVSNPKERPSFSQLGAALSKAMQSAEK

biological target: mCD8-GFP (UniProt P01731); test: co-IP; GFP- and Myc-tagged proteins co-transfected in Drosophila S2R+ cells; lysis in 50 mM Tris-Cl pH 7.5, 150 mM NaCl, 1% Triton X-100; IP with mouse anti-GFP and Protein G Sepharose at 4°C; western blot with anti-Myc and anti-GFP

| Molecule | binding |
| --- | --- |
| B1 | no binding |
| B2 | no binding |
| B3 | no binding |
| B4 | no binding |

biological target: T1, GFP-tagged Ror (Drosophila) (UniProt Q24488); test: as above
T1 sequence: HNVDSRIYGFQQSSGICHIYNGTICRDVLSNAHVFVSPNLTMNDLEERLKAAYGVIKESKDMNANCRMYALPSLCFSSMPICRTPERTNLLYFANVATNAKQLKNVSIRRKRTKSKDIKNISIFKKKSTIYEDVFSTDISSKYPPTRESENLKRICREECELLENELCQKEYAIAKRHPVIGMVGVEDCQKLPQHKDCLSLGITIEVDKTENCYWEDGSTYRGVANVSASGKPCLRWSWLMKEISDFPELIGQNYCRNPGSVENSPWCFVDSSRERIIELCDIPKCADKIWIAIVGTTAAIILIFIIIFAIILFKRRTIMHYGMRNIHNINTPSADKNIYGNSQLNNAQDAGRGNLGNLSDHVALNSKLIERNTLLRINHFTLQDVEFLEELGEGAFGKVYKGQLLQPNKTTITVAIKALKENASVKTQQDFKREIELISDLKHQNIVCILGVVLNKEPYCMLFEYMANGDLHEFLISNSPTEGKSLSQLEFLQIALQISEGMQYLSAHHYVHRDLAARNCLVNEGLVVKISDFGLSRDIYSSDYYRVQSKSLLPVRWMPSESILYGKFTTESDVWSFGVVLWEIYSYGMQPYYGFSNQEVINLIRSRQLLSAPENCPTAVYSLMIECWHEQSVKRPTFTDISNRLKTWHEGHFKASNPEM

| Molecule | binding |
| --- | --- |
| B1 | binds |
| B2 | binds |
| B3 | binds |
| B5 | binds |
| B6 | binds |

biological target: mCD8-GFP (UniProt P01731); test: as above; remark: another data set of the same source

| Molecule | binding |
| --- | --- |
| Myc-tagged Fz (from UniProt P18537 19-581) (receptor) | no binding |
